The text below walks through data of PubChem BioAssay AID1963576 (National Center for Advancing Translational Sciences (NCATS), 2024).

Among all 46,000 compounds or so, about 60 (0.1%) were called active. About 3% were inconclusive and are not listed. The call rests on the fitted dose curve; in most records, active means well fitted inhibition curve with a large enough effect; inconclusive means small, poorly fitted or top-dose-only effect; inactive means no such curve, though single readings can be large or run the other way. The list shows a part of the results.

The test in a line: Primary qHTS assay for Inhibitors of ovarian cancer metastasis using an organotypic tumor microenvironment (TME) model. Further: nearly all actives have a fitted effect of over 65% in size.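 On activity change, negative = inhibition: plate controls were DMSO wells for no effect and tomatine positive control wells for full effect.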 Conditions: SKOV3ip1-GFP adhesion/invasion on 3D omental model, fluorescence; series mostly up to 45.8 µM; activity change, negative = inhibition: at the top concentration. The method, boiled down: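 A 3D layer of primary human omental fibroblasts, mesothelial cells, fibronectin and collagen I, grown 48 hr, received SKOV3ip1-GFP cells in serum-free medium plus compounds at 0.36-46 umol/L. After 2 hr RT and 16 hr 37 C, fixed adherent GFP cells were counted; normalized to DMSO and tomatine.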
Consider `CSc1ncc(C(=O)Nc2cc(C)cc(C)c2)c(-c2ccccc2)n1`, for which the call was inactive.

Turning to `CCC(CC)C(=O)N1c2ccccc2C(C)(c2ccccc2)CC1(C)C` (stereo unspecified), the “activity change, negative = inhibition” value was inactive: 3.17%. For the molecule `COC(=O)CN1C(=O)CSc2ccc(S(=O)(=O)Nc3ccc(F)c(Cl)c3)cc21`, the “activity change, negative = inhibition” value is inactive: 8.26%. Regarding `COc1ccc(-n2c(=O)c3c4c(sc3n(Cc3ccc(F)cc3)c2=O)CN(C(C)=O)CC4)c(OC)c1`, the molecule was classed as inactive. Still for that read-out and setting: the entry for `Clc1ccc(CSc2ccc(-c3cccs3)nn2)cc1` is “inactive”. `COc1ccc(C(=O)NCCSc2c[nH]c3ccccc23)cc1OC`: the “activity change, negative = inhibition” value is inactive: 3.98%. Still for that read-out and setting: as for `CC(C)Cc1cc(C(=O)NCc2ccc(Cl)cc2)no1`, the figure is inactive: 23.9%; as for `CCc1ccc2oc(-c3ccc(C)c(NC(=O)c4cc([N+](=O)[O-])ccc4N4CCOCC4)c3)nc2c1`, inactive: 2.83%. As for `O=C(O)c1sc(Nc2ccccc2)nc1-c1ccccc1`, the result was inactive.

As to `CCOCCCn1c(SCC(=O)Nc2ccccc2CC)nc2ccccc2c1=O`, the molecule was classed as inactive. `CCOC(=O)Cn1c(=O)oc2cc(S(=O)(=O)N3CCN(c4cccc(Cl)c4)CC3)ccc21`: the “activity change, negative = inhibition” value was inactive: -1.93%. On the same count and under the same terms, as for `Cc1cc(C)c(Cn2c(=O)n(CCC(=O)NCCc3ccccc3)c(=O)c3ccccc32)c(C)c1`, the figure is inactive: 53.6%.

Consider `COc1ccc(OC)c(CCNC(=O)c2c(C)oc3ncn(CC(C)C)c(=O)c23)c1`, for which the “activity change, negative = inhibition” value is inactive: 8.6%. For the molecule `CN1CCN(C(CNC(=O)c2ccc(F)cc2)c2ccc3c(c2)OCO3)CC1` (stereo unspecified), the “activity change, negative = inhibition” value was inactive: 12.3%. In the case of `CC(=O)N1CCc2c(sc3c2c(=O)n(Cc2ccccc2)c(=O)n3Cc2ccc(Cl)cc2)C1`, the “activity change, negative = inhibition” value was inactive: 28.2%.

As for `CCN(CC)c1ccc(C(=O)N2CCc3c([nH]c4ccccc34)C2c2ccc(F)cc2)cc1` (stereo unspecified), the “activity change, negative = inhibition” value was inactive: 4.82%. For the molecule `Cc1ccc(NC(=O)c2cccc3c(=O)c4c([nH]c23)CCCC4)c(C)c1`, the “activity change, negative = inhibition” value is inactive: 7.91%. For the molecule `CCOc1ccc(NC(=O)Nc2nnc(N3CCCCC3C)s2)cc1` (stereo unspecified), the “activity change, negative = inhibition” value is inactive: 9.04%. On the same count and under the same terms, the figure for `CCOC(=O)c1sc2ccccc2c1S(=O)(=O)Nc1ccc(OC)c(Cl)c1` is inactive: -2.85%; for `COc1cccc(CNC(=O)c2c(C)nn(-c3ccc(F)cc3)c2-n2cccc2)c1` it is inactive: 11.2%. As for `Cc1ccc(NC(=O)Nc2nnc(SCC(=O)N(C(C)C)C(C)C)s2)cc1`, the molecule was classed as inactive.

As to `COCCN(CCOC)S(=O)(=O)c1ccc(C(=O)Nc2sc3c(c2C(N)=O)CCCC3)cc1`, the “activity change, negative = inhibition” value was inactive: 13.2%. Still for that read-out and setting: as for `CCCn1c(=N)c(C(=O)NCC2CCCO2)cc2c(=O)n3cc(C)ccc3nc21` (stereo unspecified), the figure is inactive: -2.12%. Consider `Cc1cccc(CSc2cn(CC(=O)N3CCOCC3)c3ccccc23)c1`, for which the “activity change, negative = inhibition” value was inactive: 9.77%.

For the molecule `Cc1ccc(Cl)cc1-n1ncc2c(NCCc3ccccc3)ncnc21`, the “activity change, negative = inhibition” value is inactive: 0.113%.

For the molecule `COc1cccc(NC(=O)Cn2nc(N3CCN(c4ccccc4)CC3)ccc2=O)c1`, the “activity change, negative = inhibition” value was inactive: -4.99%.

Turning to `COc1ccc(S(=O)(=O)N2CCC(c3nc4ccccc4s3)CC2)cc1OC`, the “activity change, negative = inhibition” value was inactive: 6.96%. Take `O=C(Cn1ncc2c3ccccc3n(Cc3ccccc3)c2c1=O)NCCc1ccc(Cl)cc1`: the call was inactive. Consider `Cc1ccc(NC(=O)Cn2c(=O)n(Cc3nc(-c4ccccc4)no3)c(=O)c3ccccc32)c(C)c1`, for which the “activity change, negative = inhibition” value was inactive: 7.04%.

Take `CCCCNc1nc2c(S(=O)(=O)c3ccc(Br)cc3)nnn2c2ccsc12`: the “activity change, negative = inhibition” value is inactive: 3.4%. Regarding `Cc1ccc(OCC(=O)Nc2ccc(OCc3cc(=O)n4ccsc4n3)cc2)cc1C`, the molecule was called inactive. With `CCC(=O)N1CCc2cc(S(=O)(=O)NC(Cc3ccccc3)C(=O)NCc3ccccc3)ccc21` (stereo unspecified), the “activity change, negative = inhibition” value is inactive: 10.1%. `CCN(C(=O)CN1C(=O)c2ccccc2Sc2ccc(C(=O)OC)cc21)c1cccc(C)c1`: the “activity change, negative = inhibition” value was inactive: -6.3%.

On to `CCCCC[C@H](O)C=C[C@H]1[C@H](O)CC(=O)[C@H]1CCCCCCC(=O)O`, for which the “activity change, negative = inhibition” value is inactive: -0.932%. Turning to `CCCCNC(=O)CCC(=O)NNc1nc2ccccc2c2nc(C)nn12`, the outcome was inactive.

Regarding `CC(CCc1ccccc1)NC(=O)CSc1n[nH]c(-c2ccccc2)n1` (stereo unspecified), the “activity change, negative = inhibition” value is inactive: -1.66%. On to `COc1ccccc1NC(=O)c1c(-c2ccc(C)cc2)nnc2ccccc12`, for which the “activity change, negative = inhibition” value is inactive: 9.93%.

As to `Cc1ccc(C(=O)N(Cc2ccc(N(C)C)cc2)CC2CCCO2)cc1` (stereo unspecified), the molecule was called inactive. The same measure, in the same setting: the entry for `Cc1nn(C(C)C(=O)NCc2ccc(OC(C)C)cc2)c(=O)c2c1sc1ccccc12` (stereo unspecified) is “inactive”. As for `Cc1ccc(Nc2c(-c3ccccn3)nc3ccc(Br)cn23)cc1`, the “activity change, negative = inhibition” value is inactive: 2.77%. On the same count and under the same terms, the figure for `CCC(=O)N1CCc2cc(Br)cc(S(=O)(=O)N3CCCC(C(=O)Nc4ccc(C)c(F)c4)C3)c21` (stereo unspecified) is inactive: -6.01%. In the case of `Cc1c(Cl)cccc1NC(=O)c1cc(-c2ccc3c(c2)OCO3)on1`, the outcome was inactive. As for `O=C(Nc1cc(Cl)ccc1Cl)c1ccc2c(c1)N(Cc1cccc(Cl)c1)C(=O)c1ccccc1S2=O` (stereo unspecified), the “activity change, negative = inhibition” value is inactive: -0.327%. Still for that read-out and setting: the figure for `O=C(NCc1cccs1)c1ccc2c(c1)sc1nc(-c3ccc(F)cc3)cn12` is inactive: -21.7%. In the case of `COc1ccc(N2CCN(C(=O)Nc3cn(CC(C)C)c(=O)c4ccccc34)CC2)cc1`, the molecule was classed as inactive. Take `Cc1ccc2oc(C(=O)Nc3c(C(=O)Nc4cccc(Cl)c4)oc4ccccc34)cc(=O)c2c1`: the “activity change, negative = inhibition” value is inactive: 0.867%. The same measure, in the same setting: as for `COc1c(Cl)cc(C(=O)Nc2cc(-c3nc4ccccc4[nH]3)ccc2C)cc1Cl`, the figure is inactive: -7.21%; as for `Cc1nn(-c2ccccc2)c(OC(=O)c2ccccc2)c1S(=O)(=O)c1ccccc1`, inactive: 5.23%. Take `Cc1ccc(N2C(=O)CS(=O)(=O)C23C(=O)Nc2ccccc23)cc1C` (stereo unspecified): the “activity change, negative = inhibition” value is inactive: 9.8%. Consider `O=C(Nc1ccccc1C(F)(F)F)N1CCOc2ccc(Cl)cc21`, for which the “activity change, negative = inhibition” value was inactive: 16%. For `CCOC(=O)CSc1nc2ccccc2c(=O)n1-c1ccc(C(=O)NCCOC)cc1`, the outcome was inactive.

With `Cc1ccccc1Cn1ccn(-c2ccc(F)c(F)c2)c(=O)c1=O`, the “activity change, negative = inhibition” value is inactive: -1.11%.

Regarding `CC(C)c1ccc(C2CC(=O)Nc3cc4c(cc32)OCCO4)cc1` (stereo unspecified), the “activity change, negative = inhibition” value was inactive: 25.7%. `CN(Cc1nc(-c2ccc(Cl)cc2)no1)S(=O)(=O)c1ccccc1`: the “activity change, negative = inhibition” value is inactive: -13.7%.

Take `CCOc1ccccc1-c1noc(CSc2nnc(-c3ccccc3)n2-c2ccc(OC)cc2)n1`: the “activity change, negative = inhibition” value was inactive: -9.13%. Take `CCOC(=O)N1CCC(NC(=O)c2ccc3c(c2)N(Cc2ccccc2C)C(=O)c2ccccc2S3=O)CC1` (stereo unspecified): the “activity change, negative = inhibition” value is inactive: 2.47%. For the molecule `CCOC(=O)N1CCc2c(sc3c2c(=O)n(-c2ccc(CC)cc2)c(=O)n3Cc2ccc(F)cc2Cl)C1`, the “activity change, negative = inhibition” value was inactive: 15.1%.

As for `COc1ccccc1N1CCN(C(=O)c2cc3c(=O)n(Cc4cccs4)ccc3nc2C)CC1`, the “activity change, negative = inhibition” value was inactive: -4.35%. Same read-out and setting: as for `CCc1ccc(NC(=O)Cn2nnc(-c3ccccc3N)n2)cc1`, the figure is inactive: 2.83%; as for `COc1ccc(N2CCN(CCCNC(=O)c3c(C)nn(-c4ccc(F)cc4)c3-n3cccc3)CC2)cc1`, inactive: -9.32%; as for `CCOc1ccc(NC(=O)Cn2nc(Cc3cccnc3)c3ccccc3c2=O)cc1`, inactive: 10.2%.
